Columns and labels:
[1] = test system: PD-L1 expression on human melanoma cancer cells (SKMEL28); test: PD-L1 levels on melanoma cells co-incubated with NK92MI cells, FACS; format: cell-based; conditions: 10 μg/ml CM-24; 24, 48 and 72 hours
Protocol: FIG. 7. Treatment with anti-CEACAM1 antibodies increases PD-L1 expression on target cancer cells. NK cells (NK92MI) were incubated with or without CM-24 (10 μg/ml), followed by the addition of human melanoma cells (SKMEL28). The cells were incubated for 24, 48 and 72 hours and PD-L1 levels were measured at each time point by FACS analysis. Mean ratio of anti-PD-L1 compared to an appropriate isotype control for the indicated treatments at the different time points.
Human melanoma cancer cells (MALME 3M) were grown in the presence of IFN-ã to induce PD-L1 expression. Human TIL cells (TIL14) were incubated with a monoclonal antibody to human CEACAM1 (CM-24) (0.01 μg/ml, 0.05 μg/ml, 0.1 μg/ml, 0.5 μg/ml), a monoclonal antibody to human PD-1 (clone E12.2H7) or with a combination of both antibodies (0.005, 0.025, 0.05 and 0.25 μg/ml of each antibody) for 30 minutes at 37° C. […] The combination index (CI) was calculated to be 0.15. In the same assay, the level of the cytotoxic protein granzyme B that is secreted upon cytotoxic cell activation was evaluated by commercial granzyme B ELISA Kit. […] The combination index (CI) was calculated to be 0.67. Results represent an average of % cytotoxicity ±SE as determined by classical LDH release assay from triplicate wells per treatment. * P≤0.05 paired T-test compared to a-PD-L1 only. […]

[2] = test system: granzyme B secretion of human LAK cells; test: Granzyme B secretion of human LAK cells with cancer cells, ELISA; format: cell-based; conditions: with T3M4 or H358 cells, 24 hours
Protocol: • A. Anti-CEACAM1 antibodies increase the cytotoxicity of human LAK cells against human melanoma cells: PBMC cells were isolated from a healthy donor followed by activation with IL-2 (500 or 1000 units/ml) for 3 days to generate a population of human LAK cells. Then, the human LAK cells were incubated with 0.1 μg/ml, 0.5 μg/ml, 2.5 μg/ml, 5 μg/ml or 10 μg/ml of an anti-CEACAM1 antibody (CM-24) for 30 minutes at 37° C. Human melanoma cells (SKMEL28) were added for an incubation of 24 hours, after which cytotoxicity was determined. […] PBMC cells were isolated from a healthy donor followed by activation with IL-2 (500 units/ml) for 7 days to generate a population of human LAK cells. Then, the human LAK cells were incubated with 0.1 μg/ml to 10 μg/ml of an anti-CEACAM1 antibody (CM-24) as indicated, for 30 minutes at 37° C. Three different human pancreatic cancer cells, T3M4, SU8686 and PANC2, and two different human lung cancer cells, H358 and H460, were added for an incubation of 24 hours. […] Anti-CEACAM1 antibodies enhance granzyme B secretion of human LAK cells in the presence of human pancreatic and lung cancer cells. Human LAK cells were incubated with an anti-CEACAM-1 antibody (CM-24) in different concentrations for 30 minutes at 37° C. […] Granzyme B secretion was measured by ELISA. […] IFN-γ secretion was measured by ELISA.

[3] = CM-24 serum level in the lung lesion model; format: in vivo, SCID-NOD mice; conditions: termination day
Protocol: At termination day, a flow cytometry based assay in combination with a QuantiBrite KIT was used in order to determine CEACAM1 receptor occupancy by CM-24 in human TIL isolated from the lungs of the treated mice. […] Examination of CEACAM1 RO values was performed using a flow cytometry based assay using PE conjugated CM-24 antibody and a QuantiBrite Kit (BD) Results represent average±SE of RO values on TIL isolated from the lung of 8-9 mice per treatment group. Data was analyzed using Kaluza software.

B1: CM-24: back-mutated humanized IgG4 anti human CEACAM1 monoclonal antibody; light chain SEQ ID NO: 52, heavy chain SEQ ID NO: 53 (antibody)
heavy: QVQLVQSGAEVKKPGASVKVSCKASGYAFTNNLIEWVRQAPGQGLEWIGVINPGSGDTNYNEKFKGRVTMTADKSISTAYMELSRLRSDDTAVYYCARGDYYGGFAVDYWGQGTTVTVSSASTKGPSVFPLAPCSRSTSESTAALGCLVKDYFPEPVTVSWNSGALTSGVHTFPAVLQSSGLYSLSSVVTVPSSSLGTKTYTCNVDHKPSNTKVDKRV[letters of human IgG4 Fc with S228P (EU numbers) left out]
light: DIQMTQSPSSLSASVGDRVTITCRTSQDIGNYLNWYQQKPGKAVKLLIYYTSRLHSGVPSRFSGSGSGTDYTLTISSLQPEDIATYFCQQGKSLPRTFGGGTKVEIKRTVAAPSVFIFPPSDEQLKSGTASVVCLLNNFYPREAKVQWKVDNALQSGNSQESVTEQDSKDSTYSLSSTLTLSKADYEKHKVYACEVTHQGLSSPVTKSFNRGEC
PD-L1 expression on surviving cancer cells [1]: increased PD-L1 expression | Granzyme B levels [2]: significantly increases Granzyme B levels in a dose-dependent manner | CM-24 serum level ([3]; 3 mg/kg): 0.3 µg/mL | CM-24 serum level ([3]; 6 mg/kg): 48.5 µg/mL | CM-24 serum level ([3]; 10 mg/kg): 111 µg/mL

Source: patent US11866509B2, “Humanized antibodies against CEACAM1” (Famewave Ltd., priority 2014, dated 2024)
